# This is one part of the list.
# B1: PX9937J-pdi-523-26-523 (Parabacteroides distasonis) (protein)
# chain: EPVSSISDANYWKSPDLFKAFNIGLHGLLRSQSSYNIFVLGEPRSDIYGDQPFGGEATQGVERFSYNTINAEFTGISNFANFYTTLNQINLMIRRTNETDLLGEAEKNYYLGQAYGLRAYIYFHLLRSWGDVIITTEPTLGSELDISHLDKAASPASEVMDLIKKDIDASEKAFGGDYSYKQGKCYWSKPATLMLKGEVYLWSGRQMGGGTGDYTVAKTALQDLQQNGNLKLQEKFTDVFSFNNKENSEMIFALHSGKEDDFMMWRDYNWRNNMVPQREYMAGYCDETGTPFLEIPGYNLQGLMRYQVKKDHYLKSFREGDTRLKGTLKAVYKKHEDGTLEYIAPIQYKFQGTTLEGSNERSWYDDYPIYRYADALLLLAEAKALLGEDPSTEINAVRERAYGSEYFNAHKNEVAYPNDKGSFYNDNPFEAGDENVMEAILKERLREFFFEGKRWYDLRRFGKDYVLKYTTAQESRLLWPINEGALTNNPALKQTPGY
# Experiments:
# Assay in all cases: glycan array binding signal (z-score within array); higher = stronger binding
# Settings in all cases: glycan notation: IUPAC condensed, linker removed
# [1] = biological target: Man(a1-3)[Man(a1-6)]Man(a1-6)[Man(a1-3)]Man
# Procedure, shortened: (§1)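 The binding signal is a Z-score computed within each array and averaged over linkers. Arrays of the same protein sequence at different concentrations or buffers were also averaged together. Data originate from 3228 arrays in the Consortium for Functional Glycomics database, kept only where the protein sequence was available.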
# [2] = biological target: Man(a1-3)[Man(a1-6)]Man(a1-6)[Man(a1-3)]Man(b1-4)GlcNAc(b1-4)GlcNAc
# Procedure, shortened: as §1
# [3] = biological target: Man(a1-3)[Man(a1-6)]Man(b1-4)GlcNAc(b1-4)GlcNAc
# Procedure, shortened: as §1
# [4] = biological target: Man(a1-3)[Man(a1-6)]Man(b1-4)GlcNAc(b1-4)[Fuc(a1-6)]GlcNAc
# Procedure, shortened: as §1
# Man(a1-6)Man = biological target: Man(a1-6)Man
# Procedure, shortened: as §1
# Man(b1-4)GlcNAc = biological target: Man(b1-4)GlcNAc
# Procedure, shortened: as §1
# MurNAc(b1-4)GlcNAc = biological target: MurNAc(b1-4)GlcNAc
# Procedure, shortened: as §1
# Neu5Ac(a2-3)Gal = biological target: Neu5Ac(a2-3)Gal
# Procedure, shortened: as §1
# [5] = biological target: Neu5Ac(a2-3)Gal(b1-3)GalNAc
# Procedure, shortened: as §1
# [6] = biological target: Neu5Ac(a2-3)Gal(b1-3)GalNAc(b1-3)Gal(a1-4)Gal(b1-4)Glc
# Procedure, shortened: as §1
# [7] = biological target: Neu5Ac(a2-3)Gal(b1-3)GalNAc(b1-4)[Neu5Ac(a2-3)]Gal(b1-4)Glc
# Procedure, shortened: as §1
# [8] = biological target: Neu5Ac(a2-3)Gal(b1-3)GalNAc(b1-4)[Neu5Ac(a2-8)Neu5Ac(a2-3)]Gal(b1-4)Glc
# Procedure, shortened: as §1
# [9] = biological target: Neu5Ac(a2-3)Gal(b1-3)GalNAc6S
# Procedure, shortened: as §1
# [10] = biological target: Neu5Ac(a2-3)Gal(b1-3)GlcNAc
# Procedure, shortened: as §1
# [11] = biological target: Neu5Ac(a2-3)Gal(b1-3)GlcNAc(b1-2)Man
# Procedure, shortened: as §1
# [12] = biological target: Neu5Ac(a2-3)Gal(b1-3)GlcNAc(b1-2)Man(a1-3)[GlcNAc(b1-4)][Neu5Ac(a2-3)Gal(b1-3)GlcNAc(b1-2)Man(a1-6)]Man(b1-4)GlcNAc(b1-4)GlcNAc
# Procedure, shortened: as §1
# [13] = biological target: Neu5Ac(a2-3)Gal(b1-3)GlcNAc(b1-2)Man(a1-3)[Neu5Ac(a2-3)Gal(b1-3)GlcNAc(b1-2)Man(a1-6)]Man(b1-4)GlcNAc(b1-4)GlcNAc
# Procedure, shortened: as §1
# [14] = biological target: Neu5Ac(a2-3)Gal(b1-3)GlcNAc(b1-3)Gal(b1-3)GlcNAc
# Procedure, shortened: as §1
# [15] = biological target: Neu5Ac(a2-3)Gal(b1-3)GlcNAc(b1-3)Gal(b1-4)GlcNAc
# Procedure, shortened: as §1
# [16] = biological target: Neu5Ac(a2-3)Gal(b1-3)GlcNAc(b1-3)GalNAc
# Procedure, shortened: as §1
# [17] = biological target: Neu5Ac(a2-3)Gal(b1-3)GlcNAc(b1-4)Gal(b1-4)Glc
# Procedure, shortened: as §1
# [18] = biological target: Neu5Ac(a2-3)Gal(b1-3)GlcNAc(b1-6)GalNAc
# Procedure, shortened: as §1
# [19] = biological target: Neu5Ac(a2-3)Gal(b1-3)GlcNAc6S
# Procedure, shortened: as §1
# [20] = biological target: Neu5Ac(a2-3)Gal(b1-3)[Fuc(a1-4)]GlcNAc
# Procedure, shortened: as §1
# [21] = biological target: Neu5Ac(a2-3)Gal(b1-3)[Fuc(a1-4)]GlcNAc(b1-3)Gal(b1-3)[Fuc(a1-4)]GlcNAc
# Procedure, shortened: as §1
# [22] = biological target: Neu5Ac(a2-3)Gal(b1-3)[Fuc(a1-4)]GlcNAc(b1-3)Gal(b1-4)[Fuc(a1-3)]GlcNAc
# Procedure, shortened: as §1
# [23] = biological target: Neu5Ac(a2-3)Gal(b1-3)[GlcNAc(b1-6)]GalNAc
# Procedure, shortened: as §1
# [24] = biological target: Neu5Ac(a2-3)Gal(b1-3)[Neu5Ac(a2-6)]GalNAc
# Procedure, shortened: as §1
# [25] = biological target: Neu5Ac(a2-3)Gal(b1-3)[Neu5Ac(a2-6)]GlcNAc(b1-3)[Fuc(a1-3)[Gal(b1-4)]GlcNAc(b1-6)]Gal(b1-4)Glc
# Procedure, shortened: as §1
# [26] = biological target: Neu5Ac(a2-3)Gal(b1-3)]Neu5Ac(a2-3)Gal(b1-4)]GlcNAc
# Procedure, shortened: as §1
# Neu5Ac(a2-3)Gal(b1-4)Glc = biological target: Neu5Ac(a2-3)Gal(b1-4)Glc
# Procedure, shortened: as §1
# [27] = biological target: Neu5Ac(a2-3)Gal(b1-4)GlcNAc
# Procedure, shortened: as §1
# [28] = biological target: Neu5Ac(a2-3)Gal(b1-4)GlcNAc(b1-2)Man
# Procedure, shortened: as §1
# [29] = biological target: Neu5Ac(a2-3)Gal(b1-4)GlcNAc(b1-2)Man(a1-3)[GlcNAc(b1-4)][Neu5Ac(a2-3)Gal(b1-4)GlcNAc(b1-2)Man(a1-6)]Man(b1-4)GlcNAc(b1-4)GlcNAc
# Procedure, shortened: as §1
# [30] = biological target: Neu5Ac(a2-3)Gal(b1-4)GlcNAc(b1-2)Man(a1-3)[Neu5Ac(a2-3)Gal(b1-4)GlcNAc(b1-2)Man(a1-6)]Man(b1-4)GlcNAc(b1-4)GlcNAc
# Procedure, shortened: as §1
# [31] = biological target: Neu5Ac(a2-3)Gal(b1-4)GlcNAc(b1-2)Man(a1-3)[Neu5Ac(a2-3)Gal(b1-4)GlcNAc(b1-2)Man(a1-6)]Man(b1-4)GlcNAc(b1-4)[Fuc(a1-6)]GlcNAc
# Procedure, shortened: as §1
# [32] = biological target: Neu5Ac(a2-3)Gal(b1-4)GlcNAc(b1-2)Man(a1-3)[Neu5Ac(a2-6)Gal(b1-4)GlcNAc(b1-2)Man(a1-6)]Man(b1-4)GlcNAc(b1-4)GlcNAc
# Procedure, shortened: as §1
# [33] = biological target: Neu5Ac(a2-3)Gal(b1-4)GlcNAc(b1-2)[Neu5Ac(a2-3)Gal(b1-4)GlcNAc(b1-4)]Man(a1-3)[GlcNAc(b1-4)][Neu5Ac(a2-3)Gal(b1-4)GlcNAc(b1-2)[Neu5Ac(a2-3)Gal(b1-4)GlcNAc(b1-6)]Man(a1-6)]Man(b1-4)GlcNAc(b1-4)GlcNAc
# Procedure, shortened: as §1
binder,measurement,setting,value
B1,glycan array binding signal (z-score),[1],0.449
same,glycan array binding signal (z-score),[2],-0.173
same,glycan array binding signal (z-score),[3],-0.151
same,glycan array binding signal (z-score),[4],-0.221
same,glycan array binding signal (z-score),Man(a1-6)Man,-0.432
same,glycan array binding signal (z-score),Man(b1-4)GlcNAc,-0.728
same,glycan array binding signal (z-score),MurNAc(b1-4)GlcNAc,-0.776
same,glycan array binding signal (z-score),Neu5Ac(a2-3)Gal,-0.304
same,glycan array binding signal (z-score),[5],-0.052
same,glycan array binding signal (z-score),[6],-0.08
same,glycan array binding signal (z-score),[7],-0.459
same,glycan array binding signal (z-score),[8],0.146
same,glycan array binding signal (z-score),[9],-0.115
same,glycan array binding signal (z-score),[10],-0.225
same,glycan array binding signal (z-score),[11],0.722
same,glycan array binding signal (z-score),[12],-0.244
same,glycan array binding signal (z-score),[13],0.408
same,glycan array binding signal (z-score),[14],-1
same,glycan array binding signal (z-score),[15],-0.746
same,glycan array binding signal (z-score),[16],-0.231
same,glycan array binding signal (z-score),[17],-0.121
same,glycan array binding signal (z-score),[18],-0.794
same,glycan array binding signal (z-score),[19],-0.141
same,glycan array binding signal (z-score),[20],0.062
same,glycan array binding signal (z-score),[21],-0.657
same,glycan array binding signal (z-score),[22],-0.125
same,glycan array binding signal (z-score),[23],-0.593
same,glycan array binding signal (z-score),[24],0.071
same,glycan array binding signal (z-score),[25],0.553
same,glycan array binding signal (z-score),[26],-0.678
same,glycan array binding signal (z-score),Neu5Ac(a2-3)Gal(b1-4)Glc,-0.103
same,glycan array binding signal (z-score),[27],-0.183
same,glycan array binding signal (z-score),[28],0.387
same,glycan array binding signal (z-score),[29],0.059
same,glycan array binding signal (z-score),[30],-0.559
same,glycan array binding signal (z-score),[31],-0.094
same,glycan array binding signal (z-score),[32],-0.747
same,glycan array binding signal (z-score),[33],0.333

# — the supplement of paper PMC8728848
